{
  "source": "PubChem BioAssay (NCI)",
  "assay_in_all_cases": "DTP human tumour cell line panel, 48 h",
  "key": {"K-562 leukemia": {"test_system": "K-562 leukemia"}, "MOLT-4 leukemia": {"test_system": "MOLT-4 leukemia"}, "A549 NSCLC": {"test_system": "A549 NSCLC"}, "TK-10 renal": {"test_system": "TK-10 renal"}},
  "note": "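Results reflect a 48-hour exposure of cells in 96-well plates to compound at five concentrations. At the GI50, growth is halved.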 A number of entries come with more than one value. This is not the full list of results. There may be further records. Results that share an entry are repeats (runs, samples, wells, individuals or studies). Marks in square brackets tell the records apart. Letters count within one entry.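 TGI denotes the concentration required for complete inhibition of growth.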",
  "data": [
    {"smiles": "COc1cc2c(c(OC)n1)[C@]1(O)[C@H](O)[C@H](CN(C)C)[C@@H](c3ccccc3)[C@]1(c1ccc(C#N)cc1)O2", "values": [
      {"measurement": "TGI", "setting": "K-562 leukemia", "value": "> 41 µM [sample A, mean of 2 tests] and 2.43 µM [sample B, mean of 2 tests]"},
      {"measurement": "TGI", "setting": "MOLT-4 leukemia", "value": "> 43.5 µM [sample A, mean of 2 tests] and 2.09 µM [sample B, mean of 2 tests]"}
    ]},
    {"smiles": "CC(C)N=c1cc2n(-c3ccc(Cl)cc3)c3ccccc3nc-2cc1Nc1ccc(Cl)cc1", "values": [
      {"measurement": "TGI", "setting": "A549 NSCLC", "value": "3.71 µM [sample A, 1 test] and > 50 µM [sample B, 1 test]"},
      {"measurement": "GI50", "setting": "TK-10 renal", "value": "2.88 µM [sample A, 1 test] and > 50 µM [sample B, 1 test]"}
    ]}
  ]
}
